Assay results published in PMC6226504, “Ca^2+ efflux via plasma membrane Ca^2+-ATPase mediates chemotaxis in ascidian sperm” (Scientific Reports, 2018).

Target: plasma membrane Ca2+-ATPase (PMCA), splice variant Atp2b-var.b (Ciona intestinalis, UniProt A0A3G9HPC9)

C[C@@H](CCC[C@@H](C)[C@H]1CC[C@H]2[C@@H]3[C@H](O)C[C@H]4[C@@H](O)[C@H](OS(=O)(=O)O)CC[C@]4(C)[C@H]3CC[C@]12C)COS(=O)(=O)O [SAAF]
Kd: 240 ± 50 nM
